The values that follow come from ChEMBL document CHEMBL4888484, “Replenishing the malaria drug discovery pipeline: Screening and hit evaluation of the MMV Hit Generation Library 1 (HGL1) against asexual blood stage Plasmodium falciparum ,using a nano luciferase reporter read-out” (2022).

SMILES strings stand for the structures. The campaign covered roughly 150,000 compounds. About 540 (0.36%) showed an effect of 50% or more. Some of the results follow.

This experiment relates to Plasmodium falciparum. In words: Primary screen in NF54 nanoGlo assay, in single point, at 2uM, 72h; a lower Z score goes with more inhibition. The class given is functional, Erythrocyte. The conditions noted are these: timepoint 72 hour.
The term % Inhibition denotes the drop in the measured response relative to a control, in per cent. In the case of `O=C(c1nccn1Cc1ccccc1)N1CCOCC1`, the “% Inhibition” value is -14% and the Z score is reported as 2.37.

Turning to `Cc1nc(C(=O)N[C@H]2CCCC[C@@H]2O)c(-c2ccccc2)s1`, the “% Inhibition” value is -6% and the Z score is reported as 0.91.

For `C/C(=C\c1ccccc1)C(=O)N1CCCc2ccccc21`, the “% Inhibition” value was -2% and the Z score came out at 0.31.

As for `O=C([C@H]1CCS(=O)(=O)C1)N1CCc2[nH]nc(C3CC3)c2C1`, the “% Inhibition” value is listed as -5% and the Z score was 0.53.

On to `CC(C)CN1N=C(C(=O)N2CCOCC2)S(=O)(=O)c2ccc(Cl)cc21`, for which the “% Inhibition” value was -3% and the Z score was 0.37.

In the case of `Cc1nn(C)c(C)c1CCC(=O)N(C)Cc1cc2cc(F)ccc2[nH]1`, the “% Inhibition” value is -14% and the Z score is given as 2.03.

Consider `CCOC(=O)c1nc(N2CC(CO)(CO)C2)cc(C(C)(C)C)n1`, for which the “% Inhibition” value is listed as -14% and the Z score turned out to be 1.39.

For `CN1CCC(N(CCc2ccccc2)C(=O)c2cccc3cnccc23)CC1`, the “% Inhibition” value is recorded as -4% and the Z score is on record as 0.65.

Turning to `COC(=O)NCCNC(=O)[C@@]1(N(C)C)COc2ccccc2C1`, the “% Inhibition” value stood at 5% and the Z score is on record as -0.63.

For the compound `Cc1nccc(NCCc2ncn(C)n2)n1`, the “% Inhibition” value was -11% and the Z score was found to be 0.94.

`CCCN(CCC)S(=O)(=O)NCc1ccnc(OCc2ccc3c(c2)OCO3)c1`: the “% Inhibition” value is given as -3% and the Z score worked out at 0.23.

Regarding `NC(=O)c1ccc2c(c1)CCCN2C(=O)C1CC1c1cccnc1` (stereo unspecified), the “% Inhibition” value is on record as -8% and the Z score came to 1.13.

`COc1cc(NC(=O)c2cc(-c3ccccc3)nc3ccccc23)c(OC)cc1NC(=O)c1ccccc1`: the “% Inhibition” value is recorded as 0% and the Z score came to 0.06.

In the case of `C#Cc1cc(F)c(NC(=O)NCCNC(C)=O)c(F)c1`, the “% Inhibition” value came to 7% and the Z score is listed as -1.11.

In the case of `CC(=O)c1sc(NC(=O)c2cc(O)nc3ccccc23)nc1-c1ccccc1`, the “% Inhibition” value was 1% and the Z score was -0.11.

Consider `COCCCN(C)C(=O)Nc1cccc(C)n1`, for which the “% Inhibition” value is given as -5% and the Z score is 0.67.

For the compound `CCCn1c(=O)c(C(=O)NCc2ccc(F)cc2)nn(-c2cccc(C)c2)c1=O`, the “% Inhibition” value was 5% and the Z score is listed as -0.66.

Take `Cn1cnnc1-c1ccnc(NCc2ccc(Cl)cc2)c1`: the “% Inhibition” value was -11% and the Z score came out at 1.73.

As for `COc1ccc(C(=O)N2CCCCCCNC(=O)[C@@H]3C[C@@H](c4nc(-c5cnccn5)no4)C[C@@H]32)cc1F`, the “% Inhibition” value is -5% and the Z score worked out at 0.63.

Take `COc1ccccc1Oc1cc(N2CCN(C(=O)C(C)(C)C)[C@@H](C)C2)ncn1`: the “% Inhibition” value is -10% and the Z score is given as 1.39.

As to `CC(C)[C@H]1CN(c2nc3c(cc2C(N)=O)CCC3)C[C@@H]1C(=O)O`, the “% Inhibition” value was -9% and the Z score worked out at 1.15.

Turning to `CCn1cc(C(=O)N[C@@H](C)CNc2ccccc2)cn1`, the “% Inhibition” value was -2% and the Z score is 0.17.

As for `O=C(Nc1cccc(F)c1)Nc1ccnn1C1CCN(C[C@H]2CCCO2)CC1`, the “% Inhibition” value is on record as -6% and the Z score is 1.

Turning to `CN(C)c1ccc(CNC(=O)c2nccnc2-c2nc3ccccc3s2)cc1`, the “% Inhibition” value is -10% and the Z score came to 1.7.

Take `Cc1[nH]nc(CCC(=O)N2CCC(F)(F)CC2)c1C`: the “% Inhibition” value is recorded as -2% and the Z score is 0.41.

For the compound `CC(=O)N1CC[C@H](C(=O)Nc2ccncc2F)C1`, the “% Inhibition” value is -5% and the Z score is on record as 0.58.

For the compound `O=C1Nc2ccc(F)cc2C12CCNC2c1ccc2c(c1)OCCO2` (stereo unspecified), the “% Inhibition” value came out at 31% and the Z score is on record as -3.54.

Regarding `CN(C)S(=O)(=O)CCC(=O)Nc1nc(C2CCN(C(=O)OC(C)(C)C)CC2)cs1`, the “% Inhibition” value is listed as -4% and the Z score amounted to 0.43.

Regarding `COC(=O)c1cnc(N2CCN(c3nccs3)CC2)c(S(=O)(=O)N2CCOCC2)c1`, the “% Inhibition” value is given as -6% and the Z score amounted to 0.94.

In the case of `CC(=O)Nc1nc(CNC2CCOC2c2ccccc2)cs1` (stereo unspecified), the “% Inhibition” value was -9% and the Z score is reported as 1.29.

`CC[C@]1(N2CCN(C(=O)Nc3cccc(F)c3C)CC2)CCN(C(=O)C(C)C)C1`: the “% Inhibition” value turned out to be 4% and the Z score is recorded as -0.36.

`O=C(NCc1cccs1)Nc1ccccc1NC(=O)c1cccc(Cl)c1`: the “% Inhibition” value is given as -11% and the Z score amounted to 1.69.

For `O=c1[nH]c(=O)n(Cc2cc(Cl)cc3c2OCOC3)cc1Cl`, the “% Inhibition” value amounted to 43% and the Z score is recorded as -5.49.

As to `COc1ccc(CN2CCC(N(c3ccc(OC)c(OC)c3)S(=O)(=O)c3ccc(F)cc3)CC2)cc1`, the “% Inhibition” value came out at 3% and the Z score is -0.53.

Take `O=C(c1cccc(NS(=O)(=O)c2ccc3c(c2)OCCO3)c1)N1CCN(c2cnccn2)CC1`: the “% Inhibition” value is listed as 10% and the Z score was -1.31.

On to `Cc1c(NC(=O)c2cccc(C(F)F)c2F)cnn1[C@H]1CCOC1`, for which the “% Inhibition” value is reported as -15% and the Z score is reported as 2.69.

In the case of `O=C(Cc1csc(-c2cccnc2)n1)N[C@H](c1ccccc1)C1CC1`, the “% Inhibition” value is given as -44% and the Z score stood at 5.19.

For `Cc1ccccc1CN1CCCN(C(=O)C2(C#N)CCCC2)CC1`, the “% Inhibition” value is -3% and the Z score is 0.24.

For `CN(Cc1nccn1C)C(=O)NC[C@@H](c1ccc(F)cc1)N1CCCC1`, the “% Inhibition” value was -22% and the Z score came out at 2.54.

With `O=C(Cn1nnc(-c2ccc3c(c2)OCO3)n1)N1CCOCC1`, the “% Inhibition” value is given as -3% and the Z score was found to be 0.42.

Take `CN(CC(=O)NC1CC1)C(=O)c1c[nH]c(C(F)(F)F)c1`: the “% Inhibition” value is -7% and the Z score is given as 1.23.

As for `Cc1cc(NC(=O)C2OC(C)CC2C)c(C)c(C)c1O` (stereo unspecified), the “% Inhibition” value is reported as -12% and the Z score stood at 1.87.

Take `CCN(CC)CCNCc1cccc(Cl)c1Cl`: the “% Inhibition” value was -2% and the Z score stood at 0.28.

Regarding `C[C@@H](Cc1ccsc1)N(C)S(=O)(=O)Cc1ccon1`, the “% Inhibition” value was -8% and the Z score was found to be 1.04.

Regarding `CCc1cccc(NC(=O)C(=O)c2ccc[nH]2)c1`, the “% Inhibition” value was -13% and the Z score was 1.2.

In the case of `O=C(NCCn1c(=O)[nH]c2ccccc21)N1CCOCC(F)(F)C1`, the “% Inhibition” value is recorded as -5% and the Z score was 0.81.

For the compound `O=C(c1ccc(N2CCCC2=O)cc1)N1CCC(c2ccccn2)CC1`, the “% Inhibition” value is listed as -2% and the Z score came out at 0.38.

On to `CC(C)(C)OC(=O)N1CCC2(CC1)CCN(c1cnccn1)CC2`, for which the “% Inhibition” value was -3% and the Z score stood at 0.33.

With `Cc1nc(N2CC[C@H](c3ccccc3Cl)C2)c2nc(C)oc2n1`, the “% Inhibition” value is -1% and the Z score was determined as 0.16.

Turning to `Cc1cc(NC(=O)C(C)(C)c2ccc(Cl)cc2F)nc(=O)[nH]1`, the “% Inhibition” value was 3% and the Z score was -0.43.

`Cc1ccncc1C(=O)N(CCN1CCOCC1)C1CCOCC1`: the “% Inhibition” value is reported as -4% and the Z score was 0.71.

On to `CCCC[C@H](NC(=O)c1ccccc1N1CCC(=O)NC1=O)c1cccnc1`, for which the “% Inhibition” value worked out at 3% and the Z score is -0.54.

In the case of `Cc1nn(C)cc1[C@H](C)NC(=O)C1CCN(c2cn[nH]c(=O)c2)CC1`, the “% Inhibition” value is reported as 3% and the Z score is -0.52.
